# Experimental data as given in PubChem BioAssay (Tox21).
# Where “and” joins values, the source holds several entries; their conditions need not be identical. Identical values can stand only once. Inconclusive means that the source gave no clear call. Such entries were picked first, then a sample of the others. Where the call is inconclusive, the potency comes from a doubtful curve fit. Where a structure was tested more than once in an assay, its records may differ in their call. Calls of active or inactive are those of the source. Unless noted, calls come from the whole dose curve; as a rule, active = well fitted curve in the direction sought with a large enough effect in the repeat runs; inconclusive = weak or mixed curves; inactive = no such curve, though single readings can be large; an effect the other way counts as inactive or inconclusive.
# Experiments:
# [1] = qHTS assay to identify small molecule agonists of the androgen receptor (AR) signaling pathway in the presence of an antagonist - cell viability counter screen (AID 1259379); details: MDA-kb2 viability, CellTiter-Fluor, 16 h; series mostly up to 92.4 µM; note: nearly all actives have a fitted effect of over 25% in size;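 for activity change, negative = cytotoxicity: MDA-kb2 human breast cancer cells carrying an MMTV luciferase reporter; % is set by controls: 0 for no effect and ±100 for the full control effect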
# Summary of the method: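 In MDA-kb2 cells (human breast carcinoma, MMTV-luciferase), compounds at 15 concentrations plus 3.0uM nilutamide; 16 hr, 37C, 0% CO2; CellTiter-Fluor fluorescence read for viability.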
# [2] = qHTS assay to identify small molecule agonists of the estrogen receptor beta (ER-beta) signaling pathway - cell viability counter screen (AID 1259380); details: ER-beta-bla HEK293T viability, CellTiter-Glo luminescence, 16 h; series mostly up to 92.4 µM; note: nearly all actives have a fitted effect of over 30% in size; for activity change, negative = cytotoxicity: % is set by controls: 0 for no effect and ±100 for the full control effect
# Summary of the method: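 Viability of ER-beta-UAS-bla HEK293T cells was determined by CellTiter-Glo luminescence following 16 hr treatment with test compounds at 37C.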
# [3] = biological target: Progesterone receptor (Homo sapiens) (UniProt P06401); assay: qHTS assay to identify small molecule agonists of the progesterone receptor (PR) signaling pathway (AID 1346784; calls by dose curve; note: nearly all actives have a fitted effect of over 30% in size; for activation: % is set by controls: 0 for no effect and ±100 for the full control effect); details: PR-UAS-bla HEK293T, beta-lactamase FRET ratio, 16 h; activation: at 92.4 µM (top of the series) unless noted
# Summary of the method: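 Compounds were tested for PR agonism in HEK 293T cells bearing a beta-lactamase gene under UAS control. Treatment lasted 16 hr at 37C; signal came from fluorescence of a FRET substrate.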
# [4] = qHTS assay to identify small molecule agonists of the estrogen receptor alpha (ER-alpha) signaling pathway in the presence of an antagonist - cell viability counter screen (AID 1259386); details: VM7Luc4E2 viability, CellTiter-Fluor fluorescence, 22 h; series mostly up to 92.4 µM;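 note: cells exposed to compounds for 22 h at 37 °C before the viability read; nearly all actives have a fitted effect of over 30% in size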
# Summary of the method: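 Fluorescent CellTiter-Fluor viability signal from VM7Luc4E2 cells, with the reagent added during the final hour of a 22hr compound exposure at 37C in the presence of 10.0nM ICI-182,780.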
# [5] = biological target: Thyrotropin receptor (Homo sapiens) (UniProt P16473); assay: qHTS assay to identify small molecule antagonists of the thyroid stimulating hormone receptor (TSHR) signaling pathway (AID 1259385; calls by dose curve; note: nearly all actives have a fitted effect of over 20% in size; for activity change, negative = inhibition: % is set by controls: 0 for no effect and ±100 for the full control effect); details: TSHR-HEK293 cAMP HTRF, TSH-stimulated antagonist mode; activity change, negative = inhibition: at 92.4 µM (top of the series) unless noted
# Summary of the method: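 Antagonist mode: compound-treated TSHR-expressing HEK293 cells were stimulated with 1.5 ng/mL TSH (final) in presence of Ro20-1724 for 30 min at RT. HTRF cAMP detection after 1 h; each compound tested at 15 concentrations, triplicate.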
# [6] = biological target: Estrogen receptor (Homo sapiens) (UniProt P03372); assay: qHTS assay to identify small molecule agonists of the estrogen receptor alpha (ER-alpha) signaling pathway in the presence of an antagonist (AID 1259383; calls by dose curve; note: nearly all actives have a fitted effect of over 15% in size); details: VM7Luc4E2 cells, ERE-luciferase, +ICI-182,780, 22 h; series mostly up to 42.5 µM
# Summary of the method: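 In VM7Luc4E2 cells, 4,000 per well, compounds at 15 concentrations were co-incubated 22hr at 37C with 10.0nM final ICI-182,780. Luminescence from the stably transfected 4×ERE-luciferase reporter was recorded 30min after ONE-Glo addition.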
# [7] = qHTS assay to identify small molecule agonists or antagonists of the thyroid stimulating hormone receptor (TSHR) signaling pathway - wild type cell line counter screen (AID 1259384; calls by dose curve); details: HEK293 wild type, cAMP HTRF counter-screen; cAMP activity change: at 92.4 µM (top of the series), stronger effect = higher value unless noted
# Summary of the method: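 Counter screen in untransfected Hek293: compounds (15-point titration, triplicate) plus phosphodiesterase inhibitor Ro20-1724 added after 18 h plating; 30 min RT. Intracellular cAMP via competitive d2/cryptate immunoassay, 1 h incubation.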
# [8] = qHTS assay to identify small molecule antagonists of the estrogen receptor beta (ER-beta) signaling pathway - cell viability counter screen (AID 1259382); details: ER-beta-UAS-bla HEK293T viability, CellTiter-Glo luminescence, 16 h; series mostly up to 92.4 µM; note: nearly all actives have a fitted effect of over 55% in size
# Summary of the method: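 Tox21 10K library tested in qHTS format on ER-beta-bla HEK293T cells stimulated with 1nM E2; 16 hr treatment at 37C. Same-well CellTiter-Glo luminescence served as the cell viability measure.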
# Potency is the fitted concentration of half-maximal effect; tags give direction and shape of the fitted curve or compound fluorescence and quenching.
# UniProt P06401, sequence (P06401 whole entry, looked up): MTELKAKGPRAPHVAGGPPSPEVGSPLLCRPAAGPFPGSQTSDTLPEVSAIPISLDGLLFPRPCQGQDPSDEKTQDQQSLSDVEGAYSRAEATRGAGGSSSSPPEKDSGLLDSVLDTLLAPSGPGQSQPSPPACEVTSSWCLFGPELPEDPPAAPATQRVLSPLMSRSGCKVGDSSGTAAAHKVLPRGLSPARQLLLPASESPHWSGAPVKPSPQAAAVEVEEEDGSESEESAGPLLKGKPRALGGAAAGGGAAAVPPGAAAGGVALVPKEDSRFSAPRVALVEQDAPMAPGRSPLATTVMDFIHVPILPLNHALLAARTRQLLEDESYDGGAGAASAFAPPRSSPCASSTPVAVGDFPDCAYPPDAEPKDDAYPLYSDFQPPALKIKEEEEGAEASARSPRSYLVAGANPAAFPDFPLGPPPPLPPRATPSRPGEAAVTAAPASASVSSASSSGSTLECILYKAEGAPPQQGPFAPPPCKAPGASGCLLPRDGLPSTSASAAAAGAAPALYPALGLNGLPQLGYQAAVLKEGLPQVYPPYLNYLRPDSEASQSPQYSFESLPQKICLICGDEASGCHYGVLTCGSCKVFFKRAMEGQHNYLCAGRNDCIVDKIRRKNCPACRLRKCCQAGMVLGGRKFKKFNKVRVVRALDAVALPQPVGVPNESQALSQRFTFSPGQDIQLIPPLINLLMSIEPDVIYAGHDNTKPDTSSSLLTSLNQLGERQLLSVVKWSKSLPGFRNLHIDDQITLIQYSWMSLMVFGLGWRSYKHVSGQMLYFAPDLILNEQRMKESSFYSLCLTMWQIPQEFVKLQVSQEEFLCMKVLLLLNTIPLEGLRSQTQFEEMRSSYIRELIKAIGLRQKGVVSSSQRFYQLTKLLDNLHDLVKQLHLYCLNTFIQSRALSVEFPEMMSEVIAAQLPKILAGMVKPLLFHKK
# UniProt P16473, sequence (P16473 whole entry, looked up): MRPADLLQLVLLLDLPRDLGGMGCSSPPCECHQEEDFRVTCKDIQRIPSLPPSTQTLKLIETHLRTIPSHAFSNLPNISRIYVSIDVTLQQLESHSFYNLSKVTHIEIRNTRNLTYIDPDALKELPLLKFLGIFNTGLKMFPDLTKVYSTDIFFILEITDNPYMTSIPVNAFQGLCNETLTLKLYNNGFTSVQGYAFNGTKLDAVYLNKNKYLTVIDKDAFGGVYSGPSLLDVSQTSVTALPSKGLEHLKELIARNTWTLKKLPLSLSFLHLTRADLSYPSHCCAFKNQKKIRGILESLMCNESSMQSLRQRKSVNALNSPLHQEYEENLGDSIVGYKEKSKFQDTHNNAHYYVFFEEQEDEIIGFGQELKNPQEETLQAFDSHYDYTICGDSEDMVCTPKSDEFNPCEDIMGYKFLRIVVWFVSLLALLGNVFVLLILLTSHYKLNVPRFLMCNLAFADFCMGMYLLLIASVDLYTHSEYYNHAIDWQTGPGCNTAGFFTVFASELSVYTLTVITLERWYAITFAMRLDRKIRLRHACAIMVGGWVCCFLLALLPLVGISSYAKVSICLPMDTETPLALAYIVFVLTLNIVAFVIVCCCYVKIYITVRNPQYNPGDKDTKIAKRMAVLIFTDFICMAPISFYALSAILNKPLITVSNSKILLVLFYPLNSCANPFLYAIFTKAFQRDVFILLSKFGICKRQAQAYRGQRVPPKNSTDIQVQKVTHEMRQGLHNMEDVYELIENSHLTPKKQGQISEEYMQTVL
# UniProt P03372, sequence (P03372 whole entry, looked up): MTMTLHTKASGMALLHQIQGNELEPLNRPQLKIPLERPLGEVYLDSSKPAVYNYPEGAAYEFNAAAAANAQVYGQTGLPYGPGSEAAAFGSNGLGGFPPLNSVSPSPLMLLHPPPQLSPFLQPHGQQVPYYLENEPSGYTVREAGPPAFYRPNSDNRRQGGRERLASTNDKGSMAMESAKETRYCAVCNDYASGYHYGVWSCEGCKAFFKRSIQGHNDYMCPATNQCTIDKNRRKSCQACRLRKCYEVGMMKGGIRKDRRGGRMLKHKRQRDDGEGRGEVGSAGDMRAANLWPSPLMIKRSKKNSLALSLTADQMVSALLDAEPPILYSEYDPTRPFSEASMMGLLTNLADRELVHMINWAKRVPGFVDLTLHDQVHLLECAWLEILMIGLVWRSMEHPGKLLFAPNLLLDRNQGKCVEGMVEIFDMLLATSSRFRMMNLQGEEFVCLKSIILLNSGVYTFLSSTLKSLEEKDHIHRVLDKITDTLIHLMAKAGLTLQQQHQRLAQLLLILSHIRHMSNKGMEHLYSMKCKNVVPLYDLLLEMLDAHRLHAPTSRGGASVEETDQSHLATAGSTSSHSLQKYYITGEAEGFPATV
compound,measurement,setting,value
C=CC(=O)OCCOC(=O)C=C,Potency,[1],"inconclusive: 48.6 µM [cytotoxic, partial curve]"
same,Potency,[2],inactive
NC(=O)CCCCC(N)=O,Potency,[1],inactive
COCCOC,Potency,[1],"inconclusive: 8.23 µM [cytotoxic, full curve]"
same,Potency,[2],"inconclusive: 2.32 µM [cytotoxic, full curve]"
same,Potency,[3],"inconclusive: 4.63 µM [activator, partial curve]"
CC(=O)Oc1c(C)c(C)c2c(c1C)CC[C@@](C)(CCC[C@H](C)CCC[C@H](C)CCCC(C)C)O2,Potency,[1],inactive
same,Potency,[2],inactive
same,Potency,[4],"inconclusive: 2.73 µM [cytotoxic, single point]"
CC1=CC(=O)CC(C)(C)C1,Potency,[1],"inconclusive: 35.4 µM [cytotoxic, partial curve]"
same,Potency,[2],"inconclusive: 17.2 µM [cytotoxic, single point]"
same,activation,[3],inconclusive: -12.9%
c1ccc2ncccc2c1,Potency,[1],inactive
CSCC[C@H](NC(=O)[C@H](Cc1c[nH]c2ccccc12)NC(=O)CCNC(=O)OC(C)(C)C)C(=O)N[C@@H](CC(=O)O)C(=O)N[C@@H](Cc1ccccc1)C(N)=O,Potency,[2],inactive
CC12CC3CC(C)(C1)CC(N)(C3)C2,Potency,[1],inactive
same,Potency,[5],inactive
NC(=O)NNc1ccccc1,Potency,[2],"inconclusive: 13.3 µM [rising, partial curve, poor fit]"
NC(=O)c1cnccn1,Potency,[2],active: 33.5 µM
C[C@@H](O)[C@H](N)C(=O)O,Potency,[2],"inconclusive: 16.4 µM [rising, single point]"
CC(=O)OCC(=O)[C@@]1(OC(C)=O)[C@@H](C)C[C@H]2[C@@H]3C[C@H](F)C4=CC(=O)C=C[C@]4(C)[C@@]3(F)[C@@H](O)C[C@@]21C,Potency,[2],"inconclusive: 33.5 µM [cytotoxic, single point]"
CC(CN(C)C)C(C)(O)Cc1ccc(Cl)cc1 (stereo not given),Potency,[2],"inconclusive: 18.8 µM [cytotoxic, partial curve]"
c1ccc(SSc2ccccc2)cc1,Potency,[2],"inconclusive: 48.9 µM [cytotoxic, partial curve]"
Cc1cc([N+](=O)[O-])ccc1N,Potency,[1],active: 53.8 µM
same,Potency,[4],active: 47.9 µM
CC(C)CCCO,Potency,[2],"inconclusive: 68.6 µM [rising, partial curve, poor fit]"
OC(Cn1cncn1)(Cn1cncn1)c1ccc(F)cc1F,Potency,[2],inactive
OCCNCCO,Potency,[2],inactive
O=C1c2ccccc2C(=O)C1c1nc2ccccc2c(Br)c1O,Potency,[1],"inconclusive: 34.4 µM [cytotoxic, partial curve]"
same,Potency,[6],"inconclusive: 54.5 µM [activator, partial curve]"
Cc1ccc(S(=O)(=O)NC2CCCCC2)cc1,Potency,[1],inactive
same,Potency,[4],"inconclusive: 43 µM [cytotoxic, partial curve, poor fit]"
CNC(=O)CN(CCN(CCN(CC(=O)[O-])CC(=O)NC)CC(=O)[O-])CC(=O)[O-].O.[Gd+3],Potency,[1],inactive
same,Potency,[4],inactive
CN(C)CCCN1c2ccccc2CCc2ccccc21,Potency,[1],"inconclusive: 29.8 µM [cytotoxic, partial curve, poor fit]"
same,Potency,[4],"inconclusive: 43.3 µM [cytotoxic, partial curve, poor fit]"
CCC(CC)C(C)CCOC(C)=O (stereo not given),Potency,[2],inactive
COc1cc(/C=C/c2ccccc2)oc(=O)c1,Potency,[2],"inconclusive: 15.9 µM [cytotoxic, full curve]"
CC[C@H](C)[C@H](N)C(=O)O,Potency,[2],inactive
C[C@@H]1O[C@@H](OC[C@H]2O[C@@H](Oc3c(-c4ccc(O)c(O)c4)oc4cc(O)cc(O)c4c3=O)[C@H](O)[C@@H](O)[C@@H]2O)[C@H](O)[C@H](O)[C@H]1O,Potency,[1],"inconclusive: 69.1 µM [cytotoxic, single point]"
same,Potency,[7],inconclusive: 54.9 µM
same,Potency,[5],"inconclusive: 69.1 µM [falling, partial curve]"
same,Potency,[4],"inconclusive: 23.7 µM [cytotoxic, partial curve, poor fit]"
Cc1cccc(N(C)C(=S)Oc2ccc3c(c2)C2CCC3C2)c1 (stereo not given),Potency,[1],inactive
same,"activity change, negative = inhibition",[5],inconclusive: -12.7% [at 42.5 µM]
C/C=C/C(=O)N(CC)c1ccccc1C,Potency,[1],inactive
same,Potency,[5],"inconclusive: 68.6 µM [rising, partial curve, poor fit]"
Nc1nc(N)nc(-c2cc(Cl)ccc2Cl)n1,Potency,[2],inactive
CC(C)[N+](C)(CCOC(=O)C1c2ccccc2Oc2ccccc21)C(C)C,Potency,[1],"inconclusive: 61.1 µM [cytotoxic, single point]"
same,activation,[3],inconclusive: 0.342%
C=CC(C)(C)CC(=O)OC,Potency,[1],"inconclusive: 10.9 µM [cytotoxic, full curve]"
same,Potency,[4],inactive
same,Potency,[3],"inconclusive: 4.87 µM [activator, full curve]"
Cc1cc(-c2ccc(N=Nc3cc(S(=O)(=O)O)c4ccccc4c3N)c(C)c2)ccc1N=Nc1cc(S(=O)(=O)O)c2ccccc2c1N,Potency,[2],"inconclusive: 27.4 µM [cytotoxic, partial curve]"
COc1ccc2c(c1OC)C(=O)O[C@@H]2[C@H]1c2c(cc3c(c2OC)OCO3)CCN1C,Potency,[1],"inconclusive: 10.6 µM [cytotoxic, partial curve]"
same,Potency,[4],"inconclusive: 5.96 µM [cytotoxic, full curve]"
O=NN(CCCl)C(=O)NC1CCCCC1,Potency,[1],inactive
same,Potency,[5],"inconclusive: 15 µM [rising, partial curve, poor fit]"
same,Potency,[3],inactive
c1ccc2ccccc2c1,Potency,[2],inactive
COc1ccc(N)c([N+](=O)[O-])c1,Potency,[1],"inconclusive: 38.6 µM [cytotoxic, partial curve]"
same,Potency,[4],"inconclusive: 61.1 µM [cytotoxic, partial curve]"
O=C(O)[C@H](O)[C@@H](O)[C@H](O[C@@H]1O[C@H](CO)[C@H](O)[C@H](O)[C@H]1O)[C@H](O)CO,Potency,[2],inactive
O=c1[nH]c(=O)c2[nH]c(=O)[nH]c2[nH]1,"activity change, negative = cytotoxicity",[2],inactive: 0.228% [at 8.39 µM]
O=C(NC(Cc1cc(=O)[nH]c2ccccc12)C(=O)O)c1ccc(Cl)cc1 (stereo not given),Potency,[2],"inconclusive: 21.1 µM [rising, partial curve, poor fit]"
OC1CCC(C2CCCCC2)CC1 (stereo not given),Potency,[1],inactive
same,Potency,[5],inactive
same,Potency,[3],inactive
CCCCCCCCCC(=O)O,Potency,[2],"inconclusive: 81.1 µM [cytotoxic, single point]"
COc1ccccc1N=Nc1c(S(=O)(=O)O)cc2cc(S(=O)(=O)O)cc(NC(C)=O)c2c1O,Potency,[1],active: 25.7 µM
same,Potency,[4],active: 22.9 µM
CC(C)N=C=NC(C)C,Potency,[2],"inconclusive: 60.3 µM [rising, partial curve, poor fit]"
CN1CCN(Cc2cc(-c3ccc4[nH]c(=O)oc4c3)co2)[C@@H](c2ccc(F)cc2)C1,Potency,[1],inconclusive: 46.7 µM [cytotoxic]
same,Potency,[4],"inconclusive: 20.9 µM [cytotoxic, partial curve]"
CCOc1ccc2ccccc2c1C(=O)N[C@@H]1C(=O)N2[C@@H]1SC(C)(C)[C@@H]2C(=O)O,Potency,[2],"inconclusive: 29.8 µM [rising, partial curve, poor fit]"
C#Cc1ccc(-c2ccccc2F)cc1,Potency,[2],inactive
CC(C)c1c(C(=O)Nc2ccccc2)c(-c2ccccc2)c(-c2ccc(F)cc2)n1CC[C@@H](O)C[C@@H](O)CC(=O)O,Potency,[2],"active: 11.7 µM and active: 25.5 µM and inconclusive: 16.8 µM [cytotoxic, partial curve, poor fit]"
same,Potency,[8],"active: 13.2 µM and active: 32.1 µM and inconclusive: 9.44 µM [cytotoxic, partial curve]"
Cc1cnc(C)c(C)n1,Potency,[2],"inconclusive: 71.9 µM [cytotoxic, partial curve, poor fit]"
same,Potency,[8],"inconclusive: 57.1 µM [cytotoxic, partial curve, poor fit]"
Nc1ccc(N)c([N+](=O)[O-])c1,Potency,[2],"inconclusive: 54.5 µM [cytotoxic, partial curve]"
same,Potency,[8],"inconclusive: 61.1 µM [cytotoxic, partial curve, poor fit]"
CC(C)(c1cc(Br)c(OCC(Br)CBr)c(Br)c1)c1cc(Br)c(OCC(Br)CBr)c(Br)c1 (stereo not given),Potency,[2],inactive
C=CCCCCCCCCC(=O)OCCCC,Potency,[2],inactive
O=S(=O)(O)c1ccc(Cl)cc1,Potency,[2],inactive
O=C(O)CCCc1c[nH]c2ccccc12,Potency,[2],inactive
CN1CCN(C2=Nc3cc(F)ccc3Cc3ccccc32)CC1,Potency,[2],"inconclusive: 21.1 µM [cytotoxic, partial curve]"
same,Potency,[8],"inconclusive: 18.8 µM [cytotoxic, partial curve, poor fit]"
O=C(O)c1cc(-c2ccccc2)nc2ccccc12,Potency,[2],"inconclusive: 27.3 µM [cytotoxic, single point]"
same,Potency,[8],inactive
O=C(O)c1ccc(O)cc1,Potency,[2],"inconclusive: 15.4 µM [cytotoxic, single point]"
CCCCCCCCCCC=CC1CC(=O)OC1=O (stereo not given),Potency,[2],"inconclusive: 27.4 µM [cytotoxic, partial curve] and inactive"
same,Potency,[8],"inconclusive: 68.6 µM [cytotoxic, partial curve, poor fit]"
same,Potency,[7],inactive
NCCOCCOCCN,Potency,[2],"inconclusive: 34.4 µM [cytotoxic, partial curve]"
same,Potency,[8],"inconclusive: 19.3 µM [cytotoxic, partial curve]"
Cc1cccc(C)c1,Potency,[2],"inconclusive: 74.6 µM [rising, partial curve, poor fit]"
CN(C)CC/C=C1\c2ccccc2COc2ccccc21,Potency,[2],active: 26.6 µM
same,Potency,[8],inconclusive: 33.5 µM [cytotoxic]
same,Potency,[5],active: 29.8 µM
CC(C)(C)OC(=O)N1C[C@@H](F)C[C@H]1C(=O)O,Potency,[2],inactive
